Test results published in PubChem BioAssay AID686978 (National Center for Advancing Translational Sciences (NCATS), 2013).
“And” between values parts separate entries of the source, which are not always exact repeats. Equal values may be shown once. The campaign covered roughly 420,000 compounds. About 64,000 (15%) were called active. The inconclusive results got no clear call from the source; some entries with a clear call stand among them for comparison. Calls follow the shape of the dose curve; as a rule, active = well fitted inhibition curve with a large enough effect; inconclusive = small, poorly fitted or top-dose-only effect; inactive = flat fitted curve, though single readings scatter. Where the call is inconclusive, the potency comes from a doubtful curve fit.

test: qHTS for Inhibitors of human tyrosyl-DNA phosphodiesterase 1 (TDP1): qHTS in cells in absence of CPT; conditions: DT40 Tdp1-/- hTDP1 cells, no CPT, ATP luminescence, 48 h; activity change, negative = growth inhibition: at 46.2 µM (top of the series) unless noted; also: nearly all actives have a fitted effect of over 55% in size
Summary of the method: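 Growth kinetics read by CellTiter-Glo luminescence after ≥48 hr at 37 °C. Cells: DT40 Tdp1-/- stably carrying human TDP1, 400 per well, compound exposure in the absence of CPT (DMSO vehicle).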
% is scaled to controls: 0 for no effect and ±100 for the full control effect; potency is read from the fitted curve at half-maximal effect; tags tell the direction and shape of the fitted curve.

| Compound | activity change, negative = growth inhibition | Potency |
| --- | --- | --- |
| NC(=O)c1ccc(NC(=O)COC(=O)c2cccc(Oc3ccccc3)c2)cc1 | inactive: -2.25% | – |
| CCOC(=O)c1ccc2oc(=O)n(Cc3ccccc3)c2c1 | inactive: -23% | – |
| CCCCn1c(C(C)NC(=O)COC)nc2ccccc21 (configuration not stated) | – | inconclusive: 23.1 µM [inhibitor, single point] |
| O=C(/C=C/c1cccc(F)c1)N1CCc2ccccc21 | – | inconclusive: 5.17 µM [inhibitor, partial curve] |
| CCOc1cccc2cc(C(=O)NCc3ccc(OC)cc3)c(=N)oc12 | – | inconclusive: 29.1 µM [inhibitor, single point] |
| Cc1ccnc(NC(=O)c2ccc(Br)s2)c1 | – | inconclusive: 29.1 µM [inhibitor, single point] |
| COc1ccc(N2CCN(Cc3cc(=O)oc4ccc5ccccc5c34)CC2)cc1 | – | inconclusive: 23.1 µM [inhibitor, partial curve, poor fit] |
| CC(CC(=O)NCc1ccc(Cl)cc1)c1ccccc1 (configuration not stated) | inactive: -10.6% | – |
| O=C(NCC(c1ccco1)S(=O)(=O)c1cccs1)c1ccc(F)cc1 (configuration not stated) | – | inconclusive: 29.1 µM [inhibitor, single point] |
| CCCOc1ccc2oc(=O)c3c(c2c1)CCCN3C(=O)CN1CCN(c2ncccn2)CC1 | – | inconclusive: 25.9 µM [inhibitor, single point] |
| COc1ccccc1CNC(=O)c1ccc(N2CCCC2)c(NC(=O)NCCC(C)C)c1 | inactive: -21.3% | – |
| O=S(=O)(Nc1cccc(-c2nc3cccnc3s2)c1)c1ccc2c(c1)CCCC2 | – | inconclusive: 29.1 µM [inhibitor, single point] |
| C[n+]1cccc(O)c1SCc1ccccc1 | – | active: 4.61 µM |
| O=C(COc1ccc(F)cc1)Nc1ccc2nc(SCC(=O)N3CCc4ccccc43)sc2c1 | – | active: 2.59 µM |
| COc1ccc2[nH]c(=O)c(CN(CCO)C(=O)c3cccs3)cc2c1 | inactive: -4.42% | – |
| O=C(/C=C/c1ccc([N+](=O)[O-])cc1)NCCc1ccc(F)cc1 | – | inconclusive: 29.1 µM [inhibitor, single point] |
| COc1ccc(CNC(=O)C[C@H]2C[C@H](C(=O)N3CCCCC3)[C@@]3(C)c4[nH]c5ccc(Cl)cc5c4CCN3C2=O)cc1OC | – | active: 11.6 µM |
| CCCS(=O)(=O)N1CCCC(C(=O)NCCc2ccc(Cl)cc2)C1 (configuration not stated) | – | inconclusive: 23.1 µM [inhibitor, single point] |
| Cc1ccc2c(c1)N(CC(=O)N1CCN(c3nc4ccccc4s3)CC1)C(=O)C(C)O2 (configuration not stated) | – | inconclusive: 16.4 µM [inhibitor, single point] |
| COc1ccccc1CNC(=O)c1nnc(Cc2ccc(Cl)cc2)o1 | – | inconclusive: 18.4 µM [inhibitor, single point] |
| Cc1cc(NC(=O)CCN2C(=O)C3C4C=CC(C4)C3C2=O)c2ccccc2n1 (configuration not stated) | – | active: 20.6 µM |
| O=C(NCc1cccnc1)c1cccc(-c2cc3ccccc3oc2=O)c1 | – | inconclusive: 25.9 µM [inhibitor, single point] |
| CN(C)c1ccc(/C=C/c2cc(N(C)C)nc3ccccc23)cc1 | – | active: 0.891 µM |
| Cc1ccc(CN(C)C(=O)c2cc(S(=O)(=O)N3CCOCC3)ccc2F)o1 | – | inconclusive: 29.1 µM [inhibitor, single point] |

| Compound | activity change, negative = growth inhibition | Potency |
| --- | --- | --- |
| O=C(COc1ccc2ccccc2c1)N1c2ccccc2Sc2ccccc21 | – | inconclusive: 18.4 µM [inhibitor, partial curve] |
| COc1ccccc1NC(=O)COc1ccc(C(=O)OCC(=O)N(C(C)C)C(C)C)cc1OC | – | inconclusive: 23.1 µM [inhibitor, single point] |
| C/C(=N\NC(=O)c1ccc(CN2CCOCC2)cc1)c1ccc(NC(=O)c2ccccc2)cc1 | – | inconclusive: 10.3 µM [inhibitor, partial curve] |
| CC(=O)c1ccc(N2CCN(S(=O)(=O)c3ccc(-c4cc(C(F)(F)F)on4)s3)CC2)cc1 | – | inconclusive: 7.31 µM [inhibitor, partial curve, poor fit] |
| CCN(CC(=O)NC(=O)NC1CCCCC1)Cc1ccccc1 | – | inconclusive: 18.4 µM [inhibitor, partial curve, poor fit] |
| O=C(CCCc1c[nH]c2ccccc12)NCCc1c[nH]c2ccccc12 | – | active: 16.4 µM |
| CC(C)NC(=O)C1(C)CSCC(=O)N1CCOc1ccccc1 (configuration not stated) | inactive: 8.35% | – |
| CSc1cccc(NC(=O)c2cc(S(=O)(=O)N3CCCC3)cn2C)c1 | – | inconclusive: 20.6 µM [inhibitor, partial curve] |
| O=C(NCc1cccnc1)c1cn(-c2ccccc2)nc1-c1ccccc1 | inactive: -10.3% | – |
| Cc1ccccc1OCC(=O)OCc1cc(=O)n2nc(C3CCCCC3)sc2n1 | inactive: -20% | – |
| COc1cc(NS(=O)(=O)c2ccc(NC(C)=O)cc2)ncn1 | inconclusive: -29.4% [inhibitor] | – |
| C=CCNC(=O)c1ccc(CN(c2ccc(OCC)cc2)S(=O)(=O)c2ccc(C)cc2)cc1 | – | inconclusive: 18.4 µM [inhibitor, single point] |
| CCc1ccc(NC(=O)CSc2nnc(Cc3cccn3C)n2-c2ccc(OC)cc2)cc1 | inactive: -17.8% | – |
| Cc1csc2nc(COc3ccccc3NC(=O)c3ccco3)cc(=O)n12 | – | inconclusive: 0.184 µM [inhibitor, full curve, poor fit] |
| Cc1cc(C(=O)CN2C(=O)C(=O)N(CC(C)C)C2=O)c(C)n1C1CC1 | inactive: -26.6% | – |
| COc1ccc(CN2CCOc3ccc(CN4CCC(Oc5cccnc5)CC4)cc3C2)c(F)c1 | – | active: 20.6 µM |
| O=C(NC(NC(=S)Nc1c(Cl)cccc1Cl)C(Cl)(Cl)Cl)c1cccc([N+](=O)[O-])c1 (configuration not stated) | – | active: 11.6 µM |
| CCCC(=O)N1CCC1(C)C(=O)Nc1ccc2c(c1)CCN2C(C)=O (configuration not stated) | inactive: 3.22% | – |
| Cc1onc(-c2ccccc2)c1C(=O)N/N=C/C=C/c1ccccc1 | – | inconclusive: 16.4 µM [inhibitor, single point] |
| CSc1cccc(NC(=O)Cn2c3ncccc3c(=O)n2-c2ccc(C)cc2)c1 | – | active: 16.4 µM |
| CC1CCCN(C(=O)CN(C)S(=O)(=O)c2ccc3c(c2)c(=O)n(C)c(=O)n3C)C1 (configuration not stated) | inactive: 15.8% | – |
| CCOc1ccc(NC(=O)NNC(=O)C(C)Oc2ccccc2OC)cc1 (configuration not stated) | inactive: 12% | – |
| O=c1ccn([C@@H]2O[C@H](CNCc3ccccc3OCc3ccc(Cl)cc3Cl)[C@@H](O)[C@H]2O)c(=O)[nH]1 | – | inconclusive: 20.6 µM [inhibitor, single point] |
| Cn1c2ccccc2c(=O)c2cc(C#Cc3cccc(N)c3)ccc21 | – | inconclusive: 29.1 µM [inhibitor, single point] |

| Compound | activity change, negative = growth inhibition | Potency |
| --- | --- | --- |
| CCC(C)(C)C(=O)Nc1nnc(CCc2ccccc2)s1 | inconclusive: -31.5% [inhibitor] | – |
| CC(C)c1ccc(NC(=S)N2CCN(Cc3ccccc3)CC2)cc1 | – | active: 25.9 µM |
| CC(C)(C)c1ccc(C(=O)N2CCCN(c3ccc([N+](=O)[O-])cn3)CC2)cc1 | – | active: 18.4 µM |
| Nc1ccn([C@@H]2O[C@H](CNCc3cc(Br)ccc3OCc3ccccc3)[C@@H](O)[C@H]2O)c(=O)n1 | inactive: -4.73% | – |
| COc1ccc(CN(C)CC(=O)Nc2ccccc2C(=O)NC2CC2)cc1F | – | inconclusive: 29.1 µM [inhibitor, single point] |
| CC1Cc2ccccc2N1C(=S)NC(=O)c1ccco1 (configuration not stated) | – | inconclusive: 23.1 µM [inhibitor, single point] |
| O=C(c1ccccc1)c1nc[nH]c1C(=O)Nc1ccccc1 | – | inconclusive: 29.1 µM [inhibitor, single point] |
| Cc1cc(Cl)nc(NC(=O)Nc2cccc(Cl)c2)n1 | inactive: -24.8% | – |
| CC1=C(C(=O)c2ccccc2)C(c2ccc(O)cc2)NC(=S)N1 (configuration not stated) | inactive: 2.95% | – |
| CCc1ccc(NC(=O)Cn2c(SC)nc3ccccc32)cc1 | – | inconclusive: 32.6 µM [inhibitor, single point] |
| COc1cc(NC(=O)CCc2nc(-c3cccs3)no2)cc(OC)c1OC | – | inconclusive: 29.1 µM [inhibitor, single point] and inconclusive: 18.4 µM [inhibitor, single point] |
| S=C(Nc1ccc2nc(-c3ccccn3)c(-c3ccccn3)nc2c1)N1CCOCC1 | inactive: -0.344% | – |
| Cc1noc(C)c1COC(=O)c1cc(S(=O)(=O)N2CCOCC2)ccc1F | inactive: -26.6% | – |
| COc1ccc(-c2nc3c(C)cc(Br)cn3c2Cc2ccsc2)cc1OC | – | inconclusive: 23.1 µM [inhibitor, single point] |
| C/C(=N/NC(=O)CC(=O)N/N=C(\C)c1ccc([N+](=O)[O-])cc1)c1ccc([N+](=O)[O-])cc1 | inactive: -27.2% | – |
| COc1ccc(C2C(O)C(c3c[nH]c4ccccc34)=NN2C(=O)CCl)cc1 (configuration not stated) | – | active: 0.58 µM |
| CNC(=S)N/N=C/c1ccccc1Cl | – | inconclusive: 20.6 µM [inhibitor, single point] |
| Cc1nc(Nc2ccccc2Cl)sc1C(=O)Nc1ccccc1 | – | active: 20.6 µM |
| CCCCCC(O)(c1ccccc1)C(CN1CCOCC1)c1ccccc1 (configuration not stated) | – | inconclusive: 29.1 µM [inhibitor, single point] |
| CC(Sc1cccc[n+]1[O-])C(=O)Nc1ccc(Oc2ccccc2)cc1 (configuration not stated) | – | inconclusive: 20.6 µM [inhibitor, single point] |
| CC12c3ccccc3C(c3ccccc31)C1C(=O)N(c3ccncc3)C(=O)C12 (configuration not stated) | – | active: 16.4 µM |
| O=C(NC(=S)Nc1cc([N+](=O)[O-])ccc1O)c1cccnc1 | – | active: 25.9 µM |
| N#C/C(=C(/O)c1ccccc1F)c1nc2cc(C(F)(F)F)ccc2s1 | – | inconclusive: 14.6 µM [inhibitor, partial curve] |
| COC(=O)c1c(-c2ccc(C)cc2)csc1N | inactive: -19.4% | – |
